# Data: the supplement of paper PMC3334620
# The full ranking holds about 33,000 sequences; the median of “E-score (-0.5 to 0.5)” is about -0.013, and the highest 2% start at about 0.3. Some of the results follow.
# Target: T1, Msn1 (UniProt P22148)
# T1 sequence: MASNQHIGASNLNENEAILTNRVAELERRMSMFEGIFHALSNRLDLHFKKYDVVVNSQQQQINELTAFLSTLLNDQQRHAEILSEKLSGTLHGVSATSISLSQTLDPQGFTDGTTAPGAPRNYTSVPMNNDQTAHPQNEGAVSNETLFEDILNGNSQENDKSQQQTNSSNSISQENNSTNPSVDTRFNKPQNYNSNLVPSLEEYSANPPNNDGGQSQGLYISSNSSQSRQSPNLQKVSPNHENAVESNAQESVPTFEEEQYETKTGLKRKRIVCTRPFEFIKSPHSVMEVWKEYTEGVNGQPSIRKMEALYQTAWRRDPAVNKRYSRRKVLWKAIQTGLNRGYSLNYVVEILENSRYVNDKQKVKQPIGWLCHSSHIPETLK
# Assay: PBM E-score (8-mer binding enrichment) (E-score (-0.5 to 0.5)); higher = stronger / more preferred TF binding; most listed sequences are background and not binding sites
# Settings: protein concentration: 200 nM; construct: GST-full length
# How it was run: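 Yeast transcription factors, full-length or as DNA-binding domains, were expressed with a GST tag using PURExpress in vitro transcription/translation. At about 100-200 nM they were applied to universal all-10-mer Agilent arrays, double-stranded by primer extension on fresh or once-stripped slides. Fluorescent anti-GST detected bound protein, and masliner normalised the scans. E-scores for ungapped eight-base words, pooled with reverse complements, came from the Universal PBM Analysis Suite.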
row,Sequence,PBM E-score
1,AGAGGGCT,-0.403
2,ACGGAAGT,0.0855
3,CGGATGTC,0.348
4,ATGATCAC,0.0677
5,CACCGTGA,-0.0052
6,ACGCCGCT,-0.0441
7,AAACCTAC,-0.00141
8,ACCCGCAG,-0.0799
9,AACATATT,0.132
10,GGTCATTA,-0.0868
11,AGAACCAT,0.138
12,GATCTGCA,-0.149
13,TAATTTAA,0.0937
14,CATAGTCC,-0.0295
15,TCTTCTAA,0.113
16,ACGCAAGC,-0.0684
17,CTTCTCTA,-0.185
18,AATACCTC,0.123
19,AGCAGTTA,-0.0695
20,AAGCCGCC,-0.36
21,AGAGTACC,-0.0733
22,ACTAAGGG,-0.152
23,CTCAAGAA,-0.0174
24,CCACTGCC,-0.114
25,GGATGAAA,0.00502

row,Sequence,PBM E-score
1,CTTCTAGC,-0.157
2,CATGGAAC,-0.0536
3,CGGCGTAC,-0.0566
4,AACGCAAA,0.0497
5,ATAACGCG,0.0678
6,GCATTAAA,0.107
7,CCGAAGGC,-0.182
8,AGATGGCC,-0.182
9,GATAGCGC,-0.273
10,ACTACTCG,-0.00983
11,AACACCAT,0.0604
12,ACAAAAAT,0.372
13,AGAAGTGA,-0.124
14,ATCTTAGC,0.149
15,CGCTTGTA,0.211
16,GAGTCACC,-0.121
17,ACCTAGGA,0.218
18,GCCGGCAA,0.0765
19,CTATTGTA,0.195
20,AAAGGGAG,-0.164
21,ATATCTTA,0.207
22,ACACTGGG,-0.14
23,AACTTACT,-0.118
24,GGAATGCC,-0.29
25,ACGCCAGG,-0.198

row,Sequence,PBM E-score
1,CAGCTAAC,-0.175
2,CCGATGTC,0.253
3,TCATCTCA,0.137
4,AGCACCAG,-0.113
5,TAACGAGA,-0.0296
6,GCACCACA,-0.138
7,CCGCCTCC,-0.331
8,AAGTTCTA,-0.0143
9,CGACCTTA,-0.0274
10,AATAGGTA,0.0149
11,TTATTGAA,0.0568
12,CGGTGGCA,-0.187
13,AAAACCAT,0.0401
14,AGATGTGC,0.0731
15,AGCTGTAC,-0.0374
16,ATTCATGG,0.00285
17,GCCGCTAA,-0.0269
18,CGCCAAGA,-0.142
19,ATACATGA,0.073
20,ACCTGCAA,-0.237
21,CAATTCTA,-0.0321
22,CCCATGGA,-0.0444
23,CATTGAAA,0.112
24,CAGAGTTA,-0.13
25,ACGATTGA,0.101

row,Sequence,PBM E-score
1,CCACCCGA,0.0126
2,CGACCGTA,-0.0583
3,ACTGCAGG,-0.14
4,GGGTTCCA,-0.254
5,GTGCTATA,0.0542
6,CTTCAAGC,-0.231
7,GAGCCCTC,-0.318
8,AGGCATAT,-0.0112
9,GGTATACA,0.135
10,CCGGCCCG,-0.183
11,ATAGGAAC,0.00013
12,ATACCTTG,0.0234
13,AAACAGAG,-0.0424
14,CGTACCCA,-0.0723
15,AGAATCTC,-0.0882
16,TACGTTAA,0.0269
17,ATTACGGC,0.0654
18,GTTGGAAA,0.165
19,GCTCATTA,-0.119
20,CATTTGCG,0.13
21,AATACTCT,0.0619
22,ATCCCTCA,-0.27
23,CTAGCCAA,0.00535
24,AGTGCGAA,-0.16
25,ACGTCCAG,0.0531

row,Sequence,PBM E-score
1,AGAAGACT,-0.225
2,ATAATTTA,0.178
3,ACCGGCCT,-0.163
4,CGCCGGAA,0.0375
5,AACCTTGA,-0.00797
6,GACACCAA,0.132
7,CTGTCCCC,0.00412
8,ATAATCTA,0.019
9,GGCGTCCC,-0.22
10,CGCCCTAA,-0.171
11,CAGCCAGC,-0.217
12,ATAAGACC,-0.0547
13,GTCTTAAA,0.101
14,ACCGCGCC,-0.168
15,CACGAAAG,0.19
16,AGTGAACC,0.0211
17,CATACGTC,0.11
18,CTTTAATC,0.0429
19,CAAGGGAA,-0.0407
20,GACTGTCA,-0.0616
21,TATAGCAA,0.055
22,CAGAAGTC,0.0297
23,AAATCTAT,0.147
24,GCCCATAC,-0.0243
25,TGGCGGAA,-0.131

row,Sequence,PBM E-score
1,TCCCCCAA,-0.251
2,CTGTGATC,-0.0616
3,ACCGGAAA,0.16
4,GGATTTAA,0.112
5,CAGAGCAA,-0.0958
6,CCGGAACC,-0.105
7,CTGGTGCA,-0.254
8,CATGACTC,-0.155
9,ATCCCCGC,-0.138
10,AAGCCAGG,-0.181
11,GATTATAC,0.0634
12,ATAGGTGA,3e-05
13,CTACTCGC,-0.174
14,CCGACCAG,0.0232
15,TGCTGCAA,0.174
16,CAGATTAA,0.161
17,AACCGTAA,0.0256
18,GTCTGAAA,0.241
19,AGACCCAG,-0.174
20,GTCTACAA,-0.00574
21,ACCCGCCA,-0.0344
22,AGCTGCCG,-0.118
23,ACCCCAGA,-0.157
24,GAATAATC,0.0305
25,CTCGGACC,0.165

row,Sequence,PBM E-score
1,AAGGACGG,-0.145
2,ACAAGCAA,0.193
3,CGATGTAC,0.169
4,CCGTTCCG,0.0111
5,CTAAGCGC,-0.0446
6,CAGCCTGC,-0.0942
7,CAAAGCGA,0.0917
8,CCTTGCTC,-0.197
9,CATGATAG,0.157
10,CGAACTTC,0.15
11,AATTCGTG,0.0694
12,ATGCACAC,0.0104
13,ATGGTACG,0.131
14,GGTCTCAC,0.0709
15,AGATTAAT,0.0857
16,CCCACGGA,-0.0342
17,AAGGGTGT,-0.114
18,CTTTGTTC,0.0603
19,AATACGGA,0.0804
20,GGCGCCTA,-0.0165
21,TAGAGCTA,-0.118
22,AACGAGAG,0.2
